In one series the test system is MRSA 44 biofilms. Briefly: Calgary Biofilm Device assay. The class given is cell-based. As to conditions: Staphylococcus aureus, read-out: MBC MRSA 44.
A further series deals with MRSA 1707 biofilms. Kind of series: Calgary Biofilm Device assay. Type of series: cell-based. As to conditions: Staphylococcus aureus, read-out: MBC MRSA 1707.
Series [1] concerns USA300 S. aureus carrying pCM29_GFP biofilms. Briefly: Confocal microscopy of pre-formed MRSA biofilms. Type of series: cell-based, Staphylococcus aureus. As to conditions: 25 μM.
In the next series the test system is MRSE 35984 biofilms. Briefly: Calgary Biofilm Device assay. The class given is cell-based. As to conditions: Staphylococcus epidermidis, read-out: MBC MRSE 35984.
A further series relates to S. aureus 156. Briefly: microbe, parasite or virus in culture. The class given is cell-based, Staphylococcus aureus.
The test system of a further series is S. aureus 138. Briefly: microbe, parasite or virus in culture. The class given is cell-based, Staphylococcus aureus.
Series [2] is described as follows: Hemolysis assay with red blood cells. The class given is cell-based. As to conditions: human, human red blood cells (2% hRBC suspension), pH 7.2.
In the next series the test system is MRSA 2. Kind of series: microbe, parasite or virus in culture. The class given is cell-based, Staphylococcus aureus. As to conditions: for MBEC MRSA 2: CBD assay, clinical isolate.
A further series deals with S. aureus 147. Kind of series: microbe, parasite or virus in culture. As to conditions: for MBEC S. aureus 147: CBD assay, clinical isolate; for MBC: Staphylococcus aureus, 147, read-out: MBC S. aureus 147. The class given is cell-based, Staphylococcus aureus.
In a further series the test system is S. aureus 129. Briefly: microbe, parasite or virus in culture. The class given is cell-based, Staphylococcus aureus. As to conditions: for MBEC S. aureus 129: CBD assay, clinical isolate; for MBC: Staphylococcus aureus, 129, read-out: MBC S. aureus 129.
Series [3] deals with S. epidermidis 12228 biofilms. Kind of series: Calgary Biofilm Device assay. The class given is cell-based, Staphylococcus epidermidis.
A short description of series [4]: LDH release assay for HeLa cytotoxicity. Type of series: cell-based. As to conditions: human, HeLa cells. (LDH leaks from cells whose membrane has failed.)
A further series has as its system MRSA and MRSE biofilms. Briefly: Calgary Biofilm Device assays, MRSA and MRSE. The class given is cell-based.
The next series concerns dormant Mtb CDC1551. Briefly: MIC against dormant Mtb. As to conditions: dormant vs replicating Mtb. The class given is cell-based, Mycobacterium tuberculosis.
A further series concerns VRE 700221. Kind of series: MIC broth microdilution. Type of series: cell-based, Enterococcus faecium. As to conditions: Enterococcus, read-out: MIC VRE 700221. (Broth dilution looks for growth in wells or tubes with falling amounts of substance.)
The next series has as its system MRSA 1. Kind of series: microbe, parasite or virus in culture. Type of series: cell-based, Staphylococcus aureus.
A further series relates to MRSA clinical isolates. Kind of series: Calgary Biofilm Device assays across MRSA clinical isolates. Type of series: cell-based. As to conditions: Staphylococcus aureus, read-out: MBC against MRSA clinical isolates.
A further series has as its system VRE 700221 biofilms. Briefly: Calgary Biofilm Device assay. As to conditions: Enterococcus, read-out: MBC VRE 700221. The class given is cell-based, Enterococcus faecium.

≈ marks a conversion by molar mass, not a printed value. Where only a bound is given, the exact number is not on record here.

A word on the IC50: it is the point on the concentration scale where inhibition reaches its midpoint. The low end stands for greater potency, the high end for weaker potency. Take `Oc1c(Br)cc(Br)c2nc3ccccc3nc12` [Compound 1, 2,4-dibromo-1-hydroxyphenazine]: the MBC with MRSA 44 biofilms amounted to 100 µM (≈ 35.4 µg/mL); with MRSA 1707 biofilms it was 50 µM (≈ 17.7 µg/mL); in the series on MRSE 35984 biofilms, 50 µM (≈ 17.7 µg/mL); with S. aureus 156 (Staphylococcus aureus, 156, read-out: MBC S. aureus 156), 50 µM (≈ 17.7 µg/mL); in the series on S. aureus 138 (Staphylococcus aureus, 138, read-out: MBC S. aureus 138), 50 µM (≈ 17.7 µg/mL); in the series with S. aureus 147 it was 50 µM (≈ 17.7 µg/mL). Moreover, the MBC amounted to 75 µM (≈ 26.6 µg/mL) in the series with S. aureus 129 and 25 µM (≈ 8.85 µg/mL) in series [3] (Staphylococcus epidermidis, read-out: MBC S. epidermidis 12228). The biofilm height in series [1] (24-hour treatment, untreated ∼30 μm) is on record as roughly 20 μm. Also, the “polysaccharide matrix of MRSA biofilm” value in series [1] (concanavalin A Texas Red stain) is “much less dense than the untreated biofilms”. The “MBEC S. aureus 156” value with S. aureus 156 (CBD assay, clinical isolate) was no less than 200 µM. Besides, the “MBEC S. aureus 138” value with S. aureus 138 (CBD assay, clinical isolate) stood at 200 µM. This molecule showed a hemolysis at 1 h, 200 µM in series [2] of no more than 1%. The “MBEC MRSA 2” value in the series on MRSA 2 is no less than 200 µM. For the same molecule, in the series with S. aureus 147, the “MBEC S. aureus 147” value is no less than 200 µM. Besides, in the series on S. aureus 129, the “MBEC S. aureus 129” value is greater than 200 µM. Further, the “MBEC S. epidermidis 12228” value in series [3] (CBD assay) is 50 µM. In [4], the IC50 at 24 h is greater than 100 µM.
As for `O=C(O)CN(CCN(CC(=O)O)CC(=O)O)CC(=O)O` [EDTA, Ethylenediaminetetraacetic acid], the “MBEC against MRSA and MRSE biofilms” value in the series with MRSA and MRSE biofilms was greater than 2000 µM. Further, the results for the MBC in the series on MRSA 1707 biofilms and in the series with MRSE 35984 biofilms were greater than 2000 µM and 1000 µM (≈ 292 µg/mL), respectively. Also, in [2], the hemolysis at 1 h, 200 µM was no more than 1%.
As for `NNC(=O)c1ccncc1` [Isoniazid], the “tolerance of dormant Mtb relative to replicating bacteria” value in the series with dormant Mtb CDC1551 is listed as “more than 1000 times”.
As for `c1ccc(CN(CCN(Cc2ccccn2)Cc2ccccn2)Cc2ccccn2)nc1` [TPEN, N,N,N′,N′-Tetrakis(2-pyridinylmethyl)-1,2-ethanediamine], the “MBEC against MRSA and MRSE biofilms” value in the series with MRSA and MRSE biofilms was greater than 2000 µM. Moreover, the MBC in the series on MRSE 35984 biofilms was found to be 250 µM (≈ 106 µg/mL). For the same molecule, the hemolysis at 1 h, 200 µM in series [2] was no more than 1%.
By MIC is commonly meant the smallest concentration in the dilution series that meets the test's criterion for growth inhibition. `CN[C@H](CC(C)C)C(=O)N[C@H]1C(=O)N[C@@H](CC(N)=O)C(=O)N[C@H]2C(=O)N[C@H]3C(=O)N[C@H](C(=O)N[C@H](C(=O)O)c4cc(O)cc(O)c4-c4cc3ccc4O)[C@H](O)c3ccc(c(Cl)c3)Oc3cc2cc(c3O[C@@H]2O[C@H](CO)[C@@H](O)[C@H](O)[C@H]2O[C@H]2C[C@](C)(N)[C@H](O)[C@H](C)O2)Oc2ccc(cc2Cl)[C@H]1O` [Vancomycin]: the “MBEC against MRSA and MRSE biofilms” value in the series on MRSA and MRSE biofilms is greater than 2000 µM. For the same molecule, the MBC is 3 to 7.8 µM (≈ 4.35 to 11.3 µg/mL) with MRSA and MRSE biofilms (read-out: MBC against MRSA and MRSE); 3.9 µM (≈ 5.65 µg/mL) in the series on MRSA 1707 biofilms; 3 µM (≈ 4.35 µg/mL) in the series with MRSA 1 (Staphylococcus aureus, MRSA, read-out: MBC MRSA 1); 3 to 7.8 µM (≈ 4.35 to 11.3 µg/mL) in the series with MRSA clinical isolates; 3 µM (≈ 4.35 µg/mL) with MRSE 35984 biofilms; greater than 200 µM in the series with VRE 700221 biofilms. The MBC in the series with MRSA 2 (Staphylococcus aureus, MRSA, read-out: MBC MRSA 2) stood at 5.9 µM (≈ 8.55 µg/mL); in the series with S. aureus 147, 5.9 µM (≈ 8.55 µg/mL); in the series on S. aureus 129 it was 5.9 µM (≈ 8.55 µg/mL). Moreover, the minimum inhibitory concentration (MIC) in the series with VRE 700221 was greater than 100 µM. The “MBEC MRSA 1” value with MRSA 1 (CBD assay, clinical isolate) is greater than 2000 µM. Further, in series [2], the hemolysis at 1 h, 200 µM was no more than 1%. Besides, the “MBEC MRSA 2” value in the series on MRSA 2 was greater than 2000 µM. Also, the “MBEC S. aureus 147” value with S. aureus 147 is greater than 2000 µM. The “MBEC S. aureus 129” value in the series on S. aureus 129 is greater than 2000 µM.

Source of the values: paper PMC11753200 (Organic & Biomolecular Chemistry, 2025).
